The values that follow come from PubChem BioAssay AID212 (DTP/NCI, 2004).

Results filed as inconclusive are left out. For part of its entries the source gives two or more results. This list holds those alone. There may be further records. Results that share an entry are repeats (runs, samples, wells, individuals or studies).

The assay relates to BDF1 mice, colon carcinoma 38 sc, T/C %. As to the kind of experiment: NCI In Vivo Anticancer Drug Screen. Data for tumor model Colon Carcinoma 38 (subcutaneous) in B6D2F1 (BDF1) mice. As to conditions: endpoint: median tumor weight (est.), higher = larger tumour. Here is the method:
The antitumor activity of compounds was measured in mice bearing transplantable tumors. Survival or tumor size were measured and the results are expressed as the measurement made in the treated group (T) divided by the measurement made in the vehicle treated control group (C). The tumor model used in this assay is Colon Carcinoma 38 (subcutaneous) in B6D2F1 (BDF1) mice

[1] abbreviates: dose: 50.0 mg/kg/injection, schedule: Q07DX002 (ip), vehicle: saline with Tween-80.
Setting [2] is: dose: 100.0 mg/kg/injection, schedule: Q07DX002 (ip), vehicle: saline.
Setting [3] is: dose: 225.0 mg/kg/injection, schedule: Q07DX002 (ip), vehicle: saline with Tween-80.
[4] abbreviates: dose: 12.5 mg/kg/injection, schedule: Q07DX002 (ip), vehicle: saline.
Setting [5] is: dose: 50.0 mg/kg/injection, schedule: Q07DX002 (ip), vehicle: saline.
Setting [6] is: dose: 200.0 mg/kg/injection, schedule: Q07DX002 (ip), vehicle: saline.
The mark [7] stands for this setting: dose: 200.0 mg/kg/injection, schedule: Q07DX002 (ip), vehicle: Klucel (hydroxypropylcellulose) (HPC).

With `Cn1c2nc(=O)n(-c3ccccc3)c(=O)c-2nc2c1CCCC2`, the T/C is, setting by setting: (dose: 12.5 mg/kg/injection, schedule: Q07DX002 (ip), vehicle: saline with Tween-80) 79 % of control and 113 % of control; under setting [1], 93 % of control and 123 % of control.
In the case of `CCOC(=O)Nc1cc2c(c(N)n1)N=C(CN(C)c1ccccc1)CN2`, the T/C (dose: 12.5 mg/kg/injection, schedule: Q07DX002 (ip), vehicle: Klucel (hydroxypropylcellulose) (HPC)) was 45 % of control and 79 % of control.
Turning to `Nc1nc(=O)n(C2OC(CO)C(O)C2O)cc1F` (centres undefined), the T/C was 94 % of control and 121 % of control under setting [2]; 36 % of control and 103 % of control (dose: 400.0 mg/kg/injection, schedule: Q07DX002 (ip), vehicle: saline).
Turning to `CSCS(=O)C[C@H](CO)NC(=O)/C=C/c1c(C)[nH]c(=O)[nH]c1=O` (some centres undefined), the T/C is, setting by setting: (dose: 0.5 mg/kg/injection, schedule: Q07DX002 (ip), vehicle: saline) 53 % of control and 111 % of control; (dose: 1.0 mg/kg/injection, schedule: Q07DX002 (ip), vehicle: saline) 75 % of control and 102 % of control.
Take `BrC1c2cccc3cccc(c23)C1Br` (centres undefined): the T/C under setting [1] is 71 % of control and 100 % of control.
On to `Nc1ccc(S(=O)(=O)c2ccc(N)cc2)cc1`, for which the T/C was 92 % of control and 121 % of control (dose: 25.0 mg/kg/injection, schedule: Q07DX002 (ip), vehicle: saline with Tween-80); 67 % of control and 118 % of control (dose: 100.0 mg/kg/injection, schedule: Q07DX002 (ip), vehicle: saline with Tween-80); 60 % of control and 87 % of control (dose: 112.0 mg/kg/injection, schedule: Q07DX002 (ip), vehicle: saline with Tween-80); 85 % of control and 112 % of control (dose: 200.0 mg/kg/injection, schedule: Q07DX002 (ip), vehicle: saline with Tween-80); 40 % of control and 78 % of control under setting [3]; 77 % of control and 106 % of control (dose: 400.0 mg/kg/injection, schedule: Q07DX002 (ip), vehicle: saline with Tween-80).
For the molecule `Nc1ccc(S(N)(=O)=O)cc1`, the T/C is 43 % of control and 110 % of control under setting [3]; 59 % of control and 95 % of control (dose: 450.0 mg/kg/injection, schedule: Q07DX002 (ip), vehicle: saline with Tween-80); 62 % of control and 93 % of control (dose: 900.0 mg/kg/injection, schedule: Q07DX002 (ip), vehicle: saline with Tween-80).
On to `C1CC[N-]CC1.C1CC[N-]CC1.C1CC[N-]CC1.[Cl][Rh]([Cl])[Cl]`, for which the T/C by setting is: under setting [4], 75 % of control and 105 % of control; under setting [5], 85 % of control and 175 % of control.
As to `ClCC[N+]12CC[N+](CCCl)(CC1)C2`, the T/C runs as follows: (dose: 25.0 mg/kg/injection, schedule: Q07DX002 (ip), vehicle: saline) 70 % of control and 156 % of control; under setting [5], 101 % of control and 168 % of control; under setting [2], 107 % of control and 169 % of control; under setting [6], 62 % of control and 91 % of control.
Take `Cc1ccc(Cl)c2ccccc12`: the T/C under setting [1] was 84 % of control and 152 % of control.
Consider `OC(C1CO1)C(O)C1CO1` (centres undefined), for which the T/C (dose: 0.5 mg/kg/injection, schedule: Q07DX003 (ip), vehicle: saline) is 69 % of control and 110 % of control.
As to `O=C(O)Cc1cccc2c(=O)c(-c3ccccc3)c(-c3ccccc3)oc12`, the T/C reads like this: (dose: 100.0 mg/kg/injection, schedule: Q07DX002 (ip), vehicle: Klucel (hydroxypropylcellulose) (HPC)) 86 % of control and 117 % of control; under setting [7], 52 % of control and 117 % of control.
`C/C=C(\C)c1cc(=O)c2c(C)cc3c(c2o1)C(=O)c1c(O)c(C2CC(C)(N(C)C)C(O)C(C)O2)cc(C2CC(N(C)C)C(O)C(C)O2)c1C3=O` (centres undefined): the T/C (dose: 125.0 micrograms/kg/injection, schedule: Q07DX002 (ip), vehicle: saline) was 84 % of control and 117 % of control.
`C[N+](C)(C)c1cc2c(nn1)Nc1ccccc1S2`: the T/C under setting [7] was 87 % of control and 150 % of control.
With `COC1C(/C=C/C(C)=O)OC2OC(C)(C)OC21` (centres undefined), the T/C runs as follows: under setting [4], 93 % of control and 154 % of control; under setting [5], 82 % of control and 115 % of control; under setting [6], 84 % of control and 111 % of control.
Consider `Nc1n[nH]c(N)n1`, for which the T/C is recorded as 85 % of control, 97 % of control, 155 % of control under setting [6] and 62 % of control, 76 % of control, 92 % of control (dose: 800.0 mg/kg/injection, schedule: Q07DX002 (ip), vehicle: saline).
